Test results published in the supplement of paper PMC8728848.
The other results are listed elsewhere or left out.

Assays:
Assay in all cases: glycan array binding signal (z-score within array); higher = stronger binding
Conditions in all cases: glycan notation: IUPAC condensed, linker removed
[1] = target: Gal3S(b1-4)Glc
Summary of the method: (§1)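 The binding signal is a Z-score computed within each array. Data were drawn from 3228 arrays in the Consortium for Functional Glycomics database, restricted to those with a known protein sequence. Scores were averaged over arrays of the same protein sequence at different concentrations or buffers, and over linkers, and negative values can be taken as non-binding.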

[2] = target: Gal3S(b1-4)Glc6S
Summary of the method: as §1

[3] = target: Gal3S(b1-4)GlcNAc
Summary of the method: as §1

[4] = target: Gal3S(b1-4)[Fuc(a1-3)]Glc6S
Summary of the method: as §1

[5] = target: Gal3S(b1-4)[Fuc(a1-3)]GlcNAc
Summary of the method: as §1

[6] = target: Gal3S(b1-4)[Fuc(a1-3)]GlcNAc6S
Summary of the method: as §1

[7] = target: Gal3S4S(b1-4)GlcNAc
Summary of the method: as §1

[8] = target: Gal3S6S(b1-4)GlcNAc
Summary of the method: as §1

[9] = target: Gal3S6S(b1-4)GlcNAc6S
Summary of the method: as §1

[10] = target: Gal4S(b1-4)GlcNAc
Summary of the method: as §1

[11] = target: Gal4S6S(b1-4)GlcNAc
Summary of the method: as §1

[12] = target: Gal6P(b1-4)GlcNAc
Summary of the method: as §1

[13] = target: Gal6S(b1-3)GlcNAc
Summary of the method: as §1

[14] = target: Gal6S(b1-3)GlcNAc6S
Summary of the method: as §1

[15] = target: Gal6S(b1-4)Glc
Summary of the method: as §1

[16] = target: Gal6S(b1-4)Glc6S
Summary of the method: as §1

[17] = target: Gal6S(b1-4)GlcNAc
Summary of the method: as §1

[18] = target: Gal6S(b1-4)GlcNAc6S
Summary of the method: as §1

[19] = target: GalNAc(a1-3)Gal
Summary of the method: as §1

[20] = target: GalNAc(a1-3)GalNAc
Summary of the method: as §1

[21] = target: GalNAc(a1-3)GalNAc(b1-3)Gal(a1-4)Gal(b1-4)Glc
Summary of the method: as §1

[22] = target: GalNAc(a1-3)GalNAc(b1-3)Gal(a1-4)Gal(b1-4)GlcNAc
Summary of the method: as §1

[23] = target: GalNAc(b1-3)Gal
Summary of the method: as §1

[24] = target: GalNAc(b1-3)Gal(a1-4)Gal(b1-4)GlcNAc
Summary of the method: as §1

[25] = target: GalNAc(b1-3)Gal(a1-4)Gal(b1-4)GlcNAc(b1-3)Gal(b1-4)Glc
Summary of the method: as §1

[26] = target: GalNAc(b1-3)Gal(a1-6)Gal(b1-4)Glc
Summary of the method: as §1

[27] = target: GalNAc(b1-3)GalNAc
Summary of the method: as §1

[28] = target: GalNAc(b1-3)GlcNAc
Summary of the method: as §1

[29] = target: GalNAc(b1-4)Gal(b1-4)Glc
Summary of the method: as §1

[30] = target: GalNAc(b1-4)GlcNAc
Summary of the method: as §1

[31] = target: GalNAc(b1-4)GlcNAc(b1-2)Man
Summary of the method: as §1

[32] = target: GalNAc(b1-4)GlcNAc(b1-2)Man(a1-3)[GalNAc(b1-4)GlcNAc(b1-2)Man(a1-6)]Man(b1-4)GlcNAc(b1-4)GlcNAc
Summary of the method: as §1

[33] = target: GalNAc(b1-4)GlcNAc(b1-3)GalNAc(b1-4)GlcNAc
Summary of the method: as §1

[34] = target: GalNAc(b1-4)GlcNAc6S
Summary of the method: as §1

[35] = target: GalNAc(b1-6)GalNAc
Summary of the method: as §1

[36] = target: GalNAc3S(b1-4)GlcNAc
Summary of the method: as §1

[37] = target: GalNAc3S(b1-4)GlcNAc3S
Summary of the method: as §1

[38] = target: GalNAc3S(b1-4)[Fuc(a1-3)]GlcNAc
Summary of the method: as §1

[39] = target: GalNAc4S6S(b1-4)GlcNAc
Summary of the method: as §1

[40] = target: GalNAc6S(b1-4)GlcNAc
Summary of the method: as §1

[41] = target: Glc(a1-4)Glc
Summary of the method: as §1

[42] = target: Glc(a1-4)Glc(a1-4)Glc(a1-4)Glc
Summary of the method: as §1

[43] = target: Glc(a1-6)Glc(a1-6)Glc
Summary of the method: as §1

[44] = target: Glc(a1-6)Glc(a1-6)Glc(a1-6)Glc
Summary of the method: as §1

[45] = target: Glc(b1-4)Glc
Summary of the method: as §1

B1: Mermaid3 (Stilbonema majum) (protein)
chain: MGSSHHHHHHSSGLVPRGSHMAASGWLRSPQGTVVKLYRRSLSWSKADEFCKDVDGRLVVDRTADMHLFLIKNVLKEKKSRVWVGLRRTASHSRTWIWSDGTRQNEGDLDANLWLRDEPNDAAGEEECALFMYSPWEKAWGLNDYLCRGGCRNYQFICEKWIR
glycan array binding signal (z-score) [1]: -0.59
glycan array binding signal (z-score) [2]: -0.077
glycan array binding signal (z-score) [3]: 0.944
glycan array binding signal (z-score) [4]: 0.09
glycan array binding signal (z-score) [5]: 0.672
glycan array binding signal (z-score) [6]: 1.3
glycan array binding signal (z-score) [7]: -0.329
glycan array binding signal (z-score) [8]: 1.13
glycan array binding signal (z-score) [9]: 0.454
glycan array binding signal (z-score) [10]: -0.658
glycan array binding signal (z-score) [11]: -0.584
glycan array binding signal (z-score) [12]: -0.473
glycan array binding signal (z-score) [13]: -0.509
glycan array binding signal (z-score) [14]: -0.579
glycan array binding signal (z-score) [15]: -0.154
glycan array binding signal (z-score) [16]: 0.727
glycan array binding signal (z-score) [17]: -0.386
glycan array binding signal (z-score) [18]: 0.906
glycan array binding signal (z-score) [19]: -0.587
glycan array binding signal (z-score) [20]: -0.667
glycan array binding signal (z-score) [21]: -0.674
glycan array binding signal (z-score) [22]: -0.61
glycan array binding signal (z-score) [23]: -0.727
glycan array binding signal (z-score) [24]: 0.257
glycan array binding signal (z-score) [25]: -0.537
glycan array binding signal (z-score) [26]: -0.404
glycan array binding signal (z-score) [27]: -0.683
glycan array binding signal (z-score) [28]: -0.595
glycan array binding signal (z-score) [29]: -0.097
glycan array binding signal (z-score) [30]: -0.212
glycan array binding signal (z-score) [31]: -0.708
glycan array binding signal (z-score) [32]: -0.498
glycan array binding signal (z-score) [33]: 2.33
glycan array binding signal (z-score) [34]: 3.6
glycan array binding signal (z-score) [35]: -0.465
glycan array binding signal (z-score) [36]: -0.079
glycan array binding signal (z-score) [37]: -0.092
glycan array binding signal (z-score) [38]: -0.526
glycan array binding signal (z-score) [39]: -0.41
glycan array binding signal (z-score) [40]: -0.209
glycan array binding signal (z-score) [41]: 0.381
glycan array binding signal (z-score) [42]: 0.486
glycan array binding signal (z-score) [43]: -0.785
glycan array binding signal (z-score) [44]: 2.2
glycan array binding signal (z-score) [45]: 0.226
